In the supplement of paper PMC12067230:
This is a noisy data set.
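Further: [psi-pin-] Saccharomyces cerevisiae expressing SupN fusions, induced by 100 µM Cu2SO4, selected 7 d at 30 °C without adenine and uracil, scored by deep sequencing of output versus input.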

Assay: amyloid nucleation score relative to library mode (yeast Sup35 reporter selection) (log enrichment difference); higher = more amyloid nucleation; sequences are the first 22 residues of the Bri2 peptide extended by up to 12 random residues
Details: random library (experiment): 1;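 active = nucleation score significantly above 0 at FDR 0.05; inactive = not significantly above 0 or absent from output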
In the case of EASNCFAIRHFENKFAVETLICCLTMACPPRLAV, the amyloid nucleation score is reported as “inactive”. In the case of EASNCFAIRHFENKFAVETLICVNKAMPQHSWVC, the amyloid nucleation score is reported as “inactive”. With EASNCFAIRHFENKFAVETLICGSTRSAPYNNTR the amyloid nucleation score was “inactive”. For EASNCFAIRHFENKFAVETLICTLRVISTVLEAT, the amyloid nucleation score was “inactive”. In the case of EASNCFAIRHFENKFAVETLICCPATRRREAGSG, the amyloid nucleation score is reported as “inactive”. In the case of EASNCFAIRHFENKFAVETLICCNGLWKGVVVTL, the amyloid nucleation score is reported as 5.01. In the case of EASNCFAIRHFENKFAVETLICRLTSKYLKRC, the amyloid nucleation score is reported as “inactive”. With EASNCFAIRHFENKFAVETLICLKF the amyloid nucleation score was 4.37. In the case of EASNCFAIRHFENKFAVETLICESHCILSLCAAV, the amyloid nucleation score is reported as “inactive”. With EASNCFAIRHFENKFAVETLICWRAKRMGRSDGG the amyloid nucleation score was “inactive”. For EASNCFAIRHFENKFAVETLICLAEGIGCVRILL, the amyloid nucleation score was 0.00985. EASNCFAIRHFENKFAVETLICNCPMFNIAPAVL gave an amyloid nucleation score of 6.54. With EASNCFAIRHFENKFAVETLICMCD the amyloid nucleation score was “inactive”. With EASNCFAIRHFENKFAVETLICAFTLLLYVWRYR the amyloid nucleation score was “inactive”. In the case of EASNCFAIRHFENKFAVETLICGD, the amyloid nucleation score is reported as “inactive”. For EASNCFAIRHFENKFAVETLICERARPDGSPGMG, the amyloid nucleation score was “inactive”. EASNCFAIRHFENKFAVETLICNVLMPHCCAEIT gave an amyloid nucleation score of 6.02. For EASNCFAIRHFENKFAVETLICMSRMHLYARQLL, the amyloid nucleation score was “inactive”. With EASNCFAIRHFENKFAVETLICDHEFMCAYECRV the amyloid nucleation score was “inactive”.

Same assay, conditions: random library (experiment): 2
In the case of EASNCFAIRHFENKFAVETLICLNDARKRNLNRV, the amyloid nucleation score is reported as “inactive”. In the case of EASNCFAIRHFENKFAVETLICTAFIVQISCGFH, the amyloid nucleation score is reported as 4.61. In the case of EASNCFAIRHFENKFAVETLICVQVSQFYHKYLA, the amyloid nucleation score is reported as “inactive”. For EASNCFAIRHFENKFAVETLICLFMILSCPLL, the amyloid nucleation score was “inactive”. For EASNCFAIRHFENKFAVETLICVVTKTTLLLNYG, the amyloid nucleation score was “inactive”. In the case of EASNCFAIRHFENKFAVETLICLRVWCYCFMRFM, the amyloid nucleation score is reported as “inactive”. Work on EASNCFAIRHFENKFAVETLICAFLIDVRFCW yielded an amyloid nucleation score of 1.11. With EASNCFAIRHFENKFAVETLICKLTTKSFVKFDS the amyloid nucleation score was “inactive”. EASNCFAIRHFENKFAVETLICVMNYFYDYNH showed an amyloid nucleation score of 7.2. With EASNCFAIRHFENKFAVETLICFLL the amyloid nucleation score was 7.31. In the case of EASNCFAIRHFENKFAVETLICVFLRCLSLKCYR, the amyloid nucleation score is reported as “inactive”. For EASNCFAIRHFENKFAVETLICNGECHPRNALFG, the amyloid nucleation score was -0.191. In the case of EASNCFAIRHFENKFAVETLICATDEYVFVWDHR, the amyloid nucleation score is reported as “inactive”. EASNCFAIRHFENKFAVETLICMNAYMSVYSMNR showed an amyloid nucleation score of 4.36. With EASNCFAIRHFENKFAVETLICGSYWYICVFMIW the amyloid nucleation score was “inactive”.

Same assay, conditions: random library (experiment): 3
With EASNCFAIRHFENKFAVETLICGPSTNGMMTYKQ the amyloid nucleation score was “inactive”. For EASNCFAIRHFENKFAVETLICGPDGMCVQLIAC, the amyloid nucleation score was “inactive”. EASNCFAIRHFENKFAVETLICAQCSWRCKGITP showed an amyloid nucleation score of 4.08. Work on EASNCFAIRHFENKFAVETLICVYTALVRDADG yielded an amyloid nucleation score of 0.34. EASNCFAIRHFENKFAVETLICVDMFNNCRFMVW gave an amyloid nucleation score of 7.23. In the case of EASNCFAIRHFENKFAVETLICRSAFGRNLVMGR, the amyloid nucleation score is reported as “inactive”. With EASNCFAIRHFENKFAVETLICIVYLGMVWRWAG the amyloid nucleation score was “inactive”. For EASNCFAIRHFENKFAVETLICGTTCRLWFQMIR, the amyloid nucleation score was “inactive”. EASNCFAIRHFENKFAVETLICGFW gave an amyloid nucleation score of 5.79. In the case of EASNCFAIRHFENKFAVETLICNVTGQKVVRRCM, the amyloid nucleation score is reported as “inactive”. In the case of EASNCFAIRHFENKFAVETLICRIRS, the amyloid nucleation score is reported as “inactive”. With EASNCFAIRHFENKFAVETLICVVRFFKLVMPVW the amyloid nucleation score was “inactive”. With EASNCFAIRHFENKFAVETLICVALTSGRVADRG the amyloid nucleation score was “inactive”.
